{
  "source": "the supplement of paper PMC8728848",
  "binders": {"B1": {"name": "GS13846A-bth-444-19-444 (Bacteroides thetaiotaomicron) (protein)", "chain": "SCENEFDVSDKADSLISVTVNTLNNQAAYNVGETAQAELWIQRGGLKDASGKVQFVVDPLLLDSLNQEDKTNYELLPENCYEMTNTEFTVDKNELCGYITYHPEKILALSAYNETKYVLPLRLISNDLAINPARNTSFLAFTILEPIVHISNAGVYNINPDLTSTMDIQIGVPFTNKWDILCNLTEDLSLIDEYNQINKVNFTLLPENAYTAPESVTLQEGVSQITASYQLKNNLVPGNYILPIKIGSITASQGGVPNNSLVIDEESNVLFCIVKEGNKINKSGWEVIECSSEHAGNEATYMIDDNESTYWHCKFKNEAGSSVPPFHFIIDMKKEITIAQIDLLNRGDGAANNIKWVEFYASNNNSEWDKIGAGDFNDEGTRATFRYYVKSTKARYLKLIIPEGYGNNCPPAAIRELTVYGLEGNN"}},
  "experiment_in_all_cases": "glycan array binding signal (z-score within array); higher = stronger binding",
  "details_in_all_cases": "glycan notation: IUPAC condensed, linker removed",
  "key": {"[1]": {"molecular_target": "Gal(b1-4)GlcNAc(b1-2)Man(a1-3)[Gal(b1-4)GlcNAc(b1-2)Man(a1-6)]Man(b1-4)GlcNAc(b1-4)[Fuc(a1-6)]GlcNAc", "outline": "(§1)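 Glycan array binding is given as a within-array Z-score, which can be read as non-binding when negative. The arrays, 3228 of them, came from the Consortium for Functional Glycomics database and were retained only where the protein sequence was available. Z-scores were averaged across arrays of the same protein sequence at different concentrations or buffers and across linkers.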"}, "[2]": {"molecular_target": "Gal(b1-4)GlcNAc(b1-2)Man(a1-3)[Gal(b1-4)GlcNAc(b1-2)Man(a1-6)][Gal(b1-4)GlcNAc(b1-4)]Man(b1-4)GlcNAc(b1-4)[Fuc(a1-6)]GlcNAc", "outline": "as §1"}, "[3]": {"molecular_target": "Gal(b1-4)GlcNAc(b1-2)Man(a1-3)[Gal(b1-4)GlcNAc(b1-2)Man(a1-6)][GlcNAc(b1-4)]Man(b1-4)GlcNAc(b1-4)[Fuc(a1-6)]GlcNAc", "outline": "as §1"}, "[4]": {"molecular_target": "Gal(b1-4)GlcNAc(b1-2)Man(a1-3)[GlcNAc(b1-2)Man(a1-6)]Man(b1-4)GlcNAc(b1-4)GlcNAc", "outline": "as §1"}, "[5]": {"molecular_target": "Gal(b1-4)GlcNAc(b1-2)Man(a1-3)[GlcNAc(b1-4)][Gal(b1-4)GlcNAc(b1-2)Man(a1-6)]Man(b1-4)GlcNAc(b1-4)GlcNAc", "outline": "as §1"}, "[6]": {"molecular_target": "Gal(b1-4)GlcNAc(b1-2)Man(a1-3)[Man(a1-6)]Man(b1-4)GlcNAc(b1-4)GlcNAc", "outline": "as §1"}, "[7]": {"molecular_target": "Gal(b1-4)GlcNAc(b1-2)Man(a1-6)Man(b1-4)GlcNAc(b1-4)GlcNAc", "outline": "as §1"}, "[8]": {"molecular_target": "Gal(b1-4)GlcNAc(b1-2)Man(a1-6)[GlcNAc(b1-2)Man(a1-3)]Man(b1-4)GlcNAc(b1-4)GlcNAc", "outline": "as §1"}, "[9]": {"molecular_target": "Gal(b1-4)GlcNAc(b1-2)Man(a1-6)[Man(a1-3)]Man(b1-4)GlcNAc(b1-4)GlcNAc", "outline": "as §1"}, "[10]": {"molecular_target": "Gal(b1-4)GlcNAc(b1-2)[Gal(b1-4)GlcNAc(b1-4)]Man(a1-3)[Gal(b1-4)GlcNAc(b1-2)Man(a1-6)]Man(b1-4)GlcNAc(b1-4)GlcNAc", "outline": "as §1"}, "[11]": {"molecular_target": "Gal(b1-4)GlcNAc(b1-2)[Gal(b1-4)GlcNAc(b1-4)]Man(a1-3)[Gal(b1-4)GlcNAc(b1-2)[Gal(b1-4)GlcNAc(b1-6)]Man(a1-6)]Man(b1-4)GlcNAc(b1-4)GlcNAc", "outline": "as §1"}, "[12]": {"molecular_target": "Gal(b1-4)GlcNAc(b1-2)[Gal(b1-4)GlcNAc(b1-4)]Man(a1-3)[GlcNAc(b1-4)][Gal(b1-4)GlcNAc(b1-2)Man(a1-6)]Man(b1-4)GlcNAc(b1-4)GlcNAc", "outline": "as §1"}, "[13]": {"molecular_target": "Gal(b1-4)GlcNAc(b1-2)[Gal(b1-4)GlcNAc(b1-4)]Man(a1-3)[GlcNAc(b1-4)][Gal(b1-4)GlcNAc(b1-2)[Gal(b1-4)GlcNAc(b1-6)]Man(a1-6)]Man(b1-4)GlcNAc(b1-4)GlcNAc", "outline": "as §1"}, "[14]": {"molecular_target": "Gal(b1-4)GlcNAc(b1-2)[Gal(b1-4)GlcNAc(b1-6)]Man(a1-6)[Gal(b1-4)GlcNAc(b1-2)Man(a1-3)]Man(b1-4)GlcNAc(b1-4)GlcNAc", "outline": "as §1"}, "[15]": {"molecular_target": "Gal(b1-4)GlcNAc(b1-2)[Gal(b1-4)GlcNAc(b1-6)]Man(a1-6)[Gal(b1-4)GlcNAc(b1-2)Man(a1-3)]Man(b1-4)GlcNAc(b1-4)[Fuc(a1-6)]GlcNAc", "outline": "as §1"}, "[16]": {"molecular_target": "Gal(b1-4)GlcNAc(b1-2)[Gal(b1-4)GlcNAc(b1-6)]Man(a1-6)[GlcNAc(b1-4)][Gal(b1-4)GlcNAc(b1-2)Man(a1-3)]Man(b1-4)GlcNAc(b1-4)GlcNAc", "outline": "as §1"}, "[17]": {"molecular_target": "Gal(b1-4)GlcNAc(b1-2)[Gal(b1-4)GlcNAc(b1-6)]Man(a1-6)[GlcNAc(b1-4)][Gal(b1-4)GlcNAc(b1-2)[Gal(b1-4)GlcNAc(b1-4)]Man(a1-3)]Man(b1-4)GlcNAc(b1-4)[Fuc(a1-6)]GlcNAc", "outline": "as §1"}, "[18]": {"molecular_target": "Gal(b1-4)GlcNAc(b1-3)Gal(b1-3)GalNAc", "outline": "as §1"}, "[19]": {"molecular_target": "Gal(b1-4)GlcNAc(b1-3)Gal(b1-3)GlcNAc", "outline": "as §1"}},
  "note": "Some of the results follow.",
  "data": [
    {"binder": "B1", "values": [
      {"measurement": "glycan array binding signal (z-score)", "setting": "[1]", "value": 0.221},
      {"measurement": "glycan array binding signal (z-score)", "setting": "[2]", "value": -0.343},
      {"measurement": "glycan array binding signal (z-score)", "setting": "[3]", "value": -0.411},
      {"measurement": "glycan array binding signal (z-score)", "setting": "[4]", "value": -0.365},
      {"measurement": "glycan array binding signal (z-score)", "setting": "[5]", "value": -0.238},
      {"measurement": "glycan array binding signal (z-score)", "setting": "[6]", "value": -0.102},
      {"measurement": "glycan array binding signal (z-score)", "setting": "[7]", "value": -0.133},
      {"measurement": "glycan array binding signal (z-score)", "setting": "[8]", "value": -0.362},
      {"measurement": "glycan array binding signal (z-score)", "setting": "[9]", "value": 2.21},
      {"measurement": "glycan array binding signal (z-score)", "setting": "[10]", "value": 0.24},
      {"measurement": "glycan array binding signal (z-score)", "setting": "[11]", "value": -0.414},
      {"measurement": "glycan array binding signal (z-score)", "setting": "[12]", "value": 0.158},
      {"measurement": "glycan array binding signal (z-score)", "setting": "[13]", "value": -0.248},
      {"measurement": "glycan array binding signal (z-score)", "setting": "[14]", "value": -0.304},
      {"measurement": "glycan array binding signal (z-score)", "setting": "[15]", "value": -0.121},
      {"measurement": "glycan array binding signal (z-score)", "setting": "[16]", "value": -0.105},
      {"measurement": "glycan array binding signal (z-score)", "setting": "[17]", "value": -0.061},
      {"measurement": "glycan array binding signal (z-score)", "setting": "[18]", "value": 0.265},
      {"measurement": "glycan array binding signal (z-score)", "setting": "[19]", "value": -0.335}
    ]}
  ]
}
